The record followed here is PMC9911399, “Two distinct binding modes provide the RNA-binding protein RbFox with extraordinary sequence specificity”.

Changes are numbered by the printed parent chain; changes in the protein carry UniProt numbers. This is one part of the list.

T1: RBFOX1 RRM (Homo sapiens, UniProt Q9NWB1 109-208)
T1 sequence: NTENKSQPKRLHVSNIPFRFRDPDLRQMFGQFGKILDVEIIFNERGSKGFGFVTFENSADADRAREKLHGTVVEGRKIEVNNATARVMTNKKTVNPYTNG

B1: AUGGCAA (DNA:RNA)
RNA: GGGAGACCGGAAUUCAGAUUGUCCAUGGCAAUUAAAUCCCGUCGUAGCCACCA
DNA 1: CAATCTGAATTCCGGTCTCCC
DNA 2: TGGTGGCTACGACGGGATT
B2: GCCAUAG (DNA:RNA)
RNA: B1 RNA with A25G, U26C, G27C, G28A, C29U, A31G
DNA 1: CAATCTGAATTCCGGTCTCCC
DNA 2: TGGTGGCTACGACGGGATT
B3: AUUACAA (DNA:RNA)
RNA: B1 RNA with G27U, G28A
DNA 1: CAATCTGAATTCCGGTCTCCC
DNA 2: TGGTGGCTACGACGGGATT
B4: GGGUUUG (DNA:RNA)
RNA: B1 RNA with A25G, U26G, G28U, C29U, A30U, A31G
DNA 1: CAATCTGAATTCCGGTCTCCC
DNA 2: TGGTGGCTACGACGGGATT
B5: AGGAUAU (DNA:RNA)
RNA: B1 RNA with U26G, G28A, C29U, A31U
DNA 1: CAATCTGAATTCCGGTCTCCC
DNA 2: TGGTGGCTACGACGGGATT
B6: AUCUUUC (DNA:RNA)
RNA: B1 RNA with G27C, G28U, C29U, A30U, A31C
DNA 1: CAATCTGAATTCCGGTCTCCC
DNA 2: TGGTGGCTACGACGGGATT
B7: GUAGUAU (DNA:RNA)
RNA: B1 RNA with A25G, G27A, C29U, A31U
DNA 1: CAATCTGAATTCCGGTCTCCC
DNA 2: TGGTGGCTACGACGGGATT
B8: CGCUCUA (DNA:RNA)
RNA: B1 RNA with A25C, U26G, G27C, G28U, A30U
DNA 1: CAATCTGAATTCCGGTCTCCC
DNA 2: TGGTGGCTACGACGGGATT
B9: UCAAUUA (DNA:RNA)
RNA: B1 RNA with A25U, U26C, G27A, G28A, C29U, A30U
DNA 1: CAATCTGAATTCCGGTCTCCC
DNA 2: TGGTGGCTACGACGGGATT
B10: AGGCCCC (DNA:RNA)
RNA: B1 RNA with U26G, G28C, A30C, A31C
DNA 1: CAATCTGAATTCCGGTCTCCC
DNA 2: TGGTGGCTACGACGGGATT
B11: GAUGGAU (DNA:RNA)
RNA: B1 RNA with A25G, U26A, G27U, C29G, A31U
DNA 1: CAATCTGAATTCCGGTCTCCC
DNA 2: TGGTGGCTACGACGGGATT
B12: AGCCCGC (DNA:RNA)
RNA: B1 RNA with U26G, G27C, G28C, A30G, A31C
DNA 1: CAATCTGAATTCCGGTCTCCC
DNA 2: TGGTGGCTACGACGGGATT
B13: CGUCUCG (DNA:RNA)
RNA: GGGAGACCGGAAUUCAGAUUGUCCCGUCUCGUUAAAUCCCGUCGUAGCCACCA
DNA 1: CAATCTGAATTCCGGTCTCCC
DNA 2: TGGTGGCTACGACGGGATT
B14: CAUGUGC (DNA:RNA)
RNA: B13 RNA with G26A, C28G, C30G, G31C
DNA 1: CAATCTGAATTCCGGTCTCCC
DNA 2: TGGTGGCTACGACGGGATT
B15: CAAGUUU (DNA:RNA)
RNA: B13 RNA with G26A, U27A, C28G, C30U, G31U
DNA 1: CAATCTGAATTCCGGTCTCCC
DNA 2: TGGTGGCTACGACGGGATT
B16: GACAGCA (DNA:RNA)
RNA: B1 RNA with A25G, U26A, G27C, G28A, C29G, A30C
DNA 1: CAATCTGAATTCCGGTCTCCC
DNA 2: TGGTGGCTACGACGGGATT
B17: GUCUGAC (DNA:RNA)
RNA: B1 RNA with A25G, G27C, G28U, C29G, A31C
DNA 1: CAATCTGAATTCCGGTCTCCC
DNA 2: TGGTGGCTACGACGGGATT
B18: CACUAGC (DNA:RNA)
RNA: B13 RNA with G26A, U27C, C28U, U29A, C30G, G31C
DNA 1: CAATCTGAATTCCGGTCTCCC
DNA 2: TGGTGGCTACGACGGGATT
B19: UCAGAAC (DNA:RNA)
RNA: B1 RNA with A25U, U26C, G27A, C29A, A31C
DNA 1: CAATCTGAATTCCGGTCTCCC
DNA 2: TGGTGGCTACGACGGGATT
B20: GAGUCCU (DNA:RNA)
RNA: B1 RNA with A25G, U26A, G28U, A30C, A31U
DNA 1: CAATCTGAATTCCGGTCTCCC
DNA 2: TGGTGGCTACGACGGGATT

This assay deals with T1, RBFOX1 RRM. The assay can be described thus: EMSA; HiTS-Eq, 1 nM pool, 10 min; buffer printed only for the single-RNA assays: 10 mM Tris pH 7.5, 150 mM NaCl, 3.4 mM EDTA, 0.001% NP-40, 30 C. Particulars: tags: His6 N-terminal (pET28a); label: 5' 32P. In a few lines: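 Purified RbFox RRM (wild type or mutant) was equilibrated for 10 min in 50 µL with 1 nM of a 5′-radiolabelled pool of RNA with 7 randomized nucleotides, its flanks annealed to DNA oligonucleotides, across increasing protein concentrations. Free RNA was separated by 8% native PAGE, excised, reverse-transcribed, PCR-barcoded and sequenced on an Illumina HiSeq 2500. Relative association constants came from read-count changes of each variant against the control reaction, normalised to the cognate motif.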
A general note: Mobility shift assays separate free from complexed probe on a gel.
Regarding B1, the binding signal was 0.0106 KA relative to UGCAUGU.
The figure for B2 is 0.00949 KA relative to UGCAUGU; for B3 it is 0.000272 KA relative to UGCAUGU.
The figure for B4 is 0.0349 KA relative to UGCAUGU.
For B5, the binding signal was 0.01 KA relative to UGCAUGU.
Regarding B6, the binding signal is 0.00443 KA relative to UGCAUGU.
For the molecule B7, the binding signal is 0.00671 KA relative to UGCAUGU.
For the molecule B8, the binding signal was 0.0105 KA relative to UGCAUGU.
The figure for B9 is 0.00266 KA relative to UGCAUGU; for B10 it is 0.00512 KA relative to UGCAUGU; for B11 it is 0.00685 KA relative to UGCAUGU.
For B12, the binding signal is 0.0103 KA relative to UGCAUGU.
In the case of B13, the binding signal is 0.00453 KA relative to UGCAUGU.
The figure for B14 is 0.0149 KA relative to UGCAUGU.
In the case of B15 it was 0.00317 KA relative to UGCAUGU; in that of B16, 0.0143 KA relative to UGCAUGU.
The figure for B17 is 0.0234 KA relative to UGCAUGU; for B18 it is 0.0037 KA relative to UGCAUGU; for B19 it is 0.00513 KA relative to UGCAUGU.
For B20, the binding signal was 0.0117 KA relative to UGCAUGU.
